Out of some 150,000 compounds screened, about 540 (0.36%) showed an effect of 50% or more. This is one part of the list.

This assay relates to Plasmodium falciparum. The experiment in a line: Primary screen in NF54 nanoGlo assay, in single point, at 2uM, 72h; a lower Z score goes with more inhibition. In kind it is functional, Erythrocyte. The following applies: timepoint 72 hour.
Consider `Cc1cnc(C(=O)N2CCCCCCNC(=O)[C@@H]3CCCC[C@@H]32)cn1`, for which the “% Inhibition” value was 11% and the Z score is listed as -1.47.
The corresponding values for `COc1nc2c(cc1CN1CC[C@H]1c1ccc(F)cc1)C(=O)N(C(C)C)C2` are 4% and -0.51.
In the same order, the values of `Cc1nnsc1C(=O)NCC[C@H](O)c1ccco1` are -20% and 2.9.
For `CC(C)(C)CC(=O)N1CCC2(CC1)N[C@H](C(=O)N1CCCC1)Cc1[nH]cnc12`, the “% Inhibition” value is -15% and the Z score is reported as 2.28.
In the same order, the values of `N[C@H]1CCC[C@@H](c2nc(Cc3c(Cl)cccc3Cl)n[nH]2)C1` are -19% and 1.79.
The corresponding values for `Cc1ccc(C)c(S(=O)(=O)Nc2cc(-c3ccoc3)no2)c1` are 1% and -0.07.
The corresponding values for `Cc1cc(=O)c(C(=O)N2CCc3ccc(Br)cc32)c[nH]1` are 3% and -0.36.
On to `CC(C)(C)c1nc(N2CCC(CCCn3ccnc3)CC2)no1`, for which the “% Inhibition” value was 2% and the Z score is on record as -0.32.
Consider `COCC1(S(=O)(=O)N2CCS(=O)(=O)C(C)C2C)CC1` (centres undefined), for which the “% Inhibition” value is listed as -2% and the Z score stood at 0.44.
The corresponding values for `Cn1c(C(=O)OC[C@H]2CCCN2C(N)=O)cc2ccccc21` are 5% and -0.74.
In the same order, the values of `Cc1ccccc1OCCn1c(C(F)(F)F)ccc(C(N)=O)c1=O` are 1% and -0.12.
The corresponding values for `Cc1cc2ncc3c(n2n1)CCN(C(=O)c1ccc2nsnc2c1)C3` are -12% and 1.94.
As to `Cc1ccsc1-c1nc(CN2CCC(O)(CO)CC2)c(C)o1`, the “% Inhibition” value was -10% and the Z score stood at 1.27.
Turning to `CN(C)S(=O)(=O)c1ccc2c(c1)CCN2C(=O)CC1CC2CCC1C2` (centres undefined), the “% Inhibition” value came out at 10% and the Z score is listed as -1.15.
The corresponding values for `O=C(c1csc(Nc2ccccc2Cl)n1)N1CCc2ccccc2C1` are 1% and -0.19.
Turning to `c1ccc([C@@H]2CN(C3CC3)CC3(CCN(Cc4ccncc4)CC3)C2)cc1`, the “% Inhibition” value is on record as -1% and the Z score came out at 0.23.
In the case of `O=C(Nc1ccccc1)c1cc(N2CCOCC2)nc2ccccc12`, the “% Inhibition” value was -3% and the Z score was determined as 0.38.
In the same order, the values of `N#Cc1nccnc1N1CCC[C@]2(CC=CCC2)C1` are 0% and -0.03.
In the same order, the values of `CCc1cccnc1C(=O)N1CCN(C(=O)c2ccc3[nH]cnc3c2)CC1` are -7% and 0.88.
Consider `CCCNC(=O)[C@H](C)Nc1cccc(C)c1C`, for which the “% Inhibition” value came out at 4% and the Z score is given as -0.82.
The corresponding values for `COc1cc(-c2noc(-c3ccc(C)cc3)n2)ccc1OCC(=O)Nc1ccc(C)cc1` are -9% and 1.69.
The corresponding values for `Cn1c(CCCN2C(=O)C(C(N)=O)C3CC2(C)Oc2ccccc23)nc2ccccc21` (centres undefined) are -6% and 0.81.
`O=C(NCc1ccccc1OC1CCC1)N(CCO)C1CC1`: the “% Inhibition” value amounted to 36% and the Z score is listed as -0.86.
Take `CCn1ncnc1-c1nccn1CC1(O)CCCCC1`: the “% Inhibition” value is given as -7% and the Z score was found to be 1.14.
The corresponding values for `O=C(CCCC1CCCCC1)N1CC(n2ccnn2)C1` are -1% and 0.14.
Consider `Cc1nnc(NC(=O)[C@H]2O[C@@H]3OC(C)(C)O[C@@H]3[C@H]3OC(C)(C)O[C@H]32)s1`, for which the “% Inhibition” value is -8% and the Z score turned out to be 0.97.
In the case of `CC(C)N(C)CC(=O)Nc1cc(-c2ccccc2)on1`, the “% Inhibition” value amounted to 35% and the Z score is -3.58.
`CN1C[C@@H](O)CNS(=O)(=O)c2ccc(C3CCOCC3)cc2O[C@H]2CN(CC3CCCCC3)C[C@H]21`: the “% Inhibition” value was found to be 3% and the Z score was -0.54.
The corresponding values for `Cc1cc(C)n(-c2ccc(-c3nc(-c4c(C)ncc5c4CCNC5)no3)cc2)n1` are -6% and 0.72.
The corresponding values for `Cn1nc(-c2ccccc2Cl)nc1NC(=O)[C@H]1CCOC1` are -5% and 0.9.
Turning to `Cc1n[nH]c(C)c1C(=O)N1CCC(n2cc(CN3CCCC3(C)C)nn2)CC1`, the “% Inhibition” value is 11% and the Z score was -1.44.
On to `CCn1nncc1C(=O)N(C(C)C)[C@H]1CCOC1`, for which the “% Inhibition” value is given as 0% and the Z score is -0.04.
As to `Cc1nc(C)c(S(=O)(=O)NC[C@H](C)c2ncon2)s1`, the “% Inhibition” value is -1% and the Z score is reported as 0.21.
For `c1ccc(-c2ncn(C[C@H]3CCCCO3)c2-c2ccnc3ccccc23)cc1`, the “% Inhibition” value is given as -4% and the Z score is 0.55.
In the same order, the values of `C[C@H]1C[C@@H](C(F)F)n2ncc(C(=O)NC3CC3)c2N1` are 1% and -0.22.
Take `O=C(NCc1cccs1)[C@H]1CCCN(c2nc3ccc(Cl)cc3[nH]2)C1`: the “% Inhibition” value was -2% and the Z score stood at 0.32.
Regarding `O=C1CC[C@H](C(=O)N2CC(Cc3ccccc3)C2)N1`, the “% Inhibition” value is given as -4% and the Z score is given as 0.93.
In the case of `CCCc1noc(CN(C)C(=O)c2ccc3nc(C4CCCCC4)oc3c2)n1`, the “% Inhibition” value is given as -1% and the Z score is listed as 0.09.
The corresponding values for `CCc1nc(C(C)C)ccc1C(=O)N(C)C[C@H]1CCN(C(C)=O)C1` are 4% and -0.63.
For the compound `CCOC(=O)N1CCC(N2CCC(CO)(C[C@H]3CCCCO3)CC2)CC1`, the “% Inhibition” value is listed as -7% and the Z score stood at 0.97.
In the same order, the values of `CC(=O)c1ncc(C(=O)N(CCN(C)C)C[C@H]2CCCO2)s1` are 20% and -2.49.
On to `C[C@@H](N)C(=O)N1CCc2onc(C(c3ccccc3)c3ccccc3)c2C1`, for which the “% Inhibition” value is given as -14% and the Z score is 1.69.

Values taken from ChEMBL document CHEMBL4888484, “Replenishing the malaria drug discovery pipeline: Screening and hit evaluation of the MMV Hit Generation Library 1 (HGL1) against asexual blood stage Plasmodium falciparum ,using a nano luciferase reporter read-out” (2022).
